The other results are listed elsewhere or left out. Shown are side measurements of this screen, not its main read-out; they come without a call. The list favours compounds with an active or inconclusive main result.
Experiment: oleate-induced lipid droplet accumulation in AML12 cells – imaging, high-throughput imaging, BODIPY stain, primary screen (AID 1656);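 note: cells counted across two imaged fields per well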
Settings: AML12 mouse hepatocytes, oleate lipid droplets, measured here: cell count, cytotoxicity flag, at 6.5 µM
Outline: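 Assay system: AML12 hepatocytes (mouse); Probe or stimulus: oleic acid at 100 µM to induce lipid droplet formation; Dosing: compound at 6.5 µM only; Schedule: compound with oleate, overnight; Detection: fluorescence imaging, 20x objective, two fields per well; Measure: % inhibition of lipid droplet signal.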

Row | SMILES | cell count [cells]
1 | C#CCOCCOCCOCCNc1nc(N2CCOCC2)nc(N2CCN(C(=O)[C@H]([C@@H](C)CC)n3cc([C@@H](N)Cc4ccc(O)cc4)nn3)CC2)n1 | 728
2 | COc1ccc(-c2c/c(=N\c3nc(-c4ccccc4)c(C)s3)c3ccccc3o2)cc1O | 759
3 | CCc1cc(=O)oc2cc3occ(-c4ccc(OC)c(F)c4)c3cc12 | 202
4 | CCOc1cc(N2CCOCC2)c(OCC)cc1NC(=O)COC(=O)c1cccc2ccccc12 | 584
5 | CC(C)c1ccccc1-n1c(SCC(=O)c2ccc3c(c2)NC(=O)CO3)nc2ccccc2c1=O | 715
6 | Cc1occc1C(=O)N/N=C/c1ccc(OCc2ccccc2)cc1 | 727
7 | CC(C)(C)C(=O)Cn1c(=O)n(CC2CCCO2)c(=O)c2ccccc21 (configuration not stated) | 741
8 | N#CC1=C(N)Oc2c(ccc3ccccc23)C1c1cccs1 (configuration not stated) | 204
9 | Cc1cc(C)nc(Nc2nc3ccccc3[nH]2)n1 | 646
10 | CCc1ccc(NC(=O)CSc2nc3ccccc3nc2N2CCCC2)cc1 | 738
11 | CC(C)OC(=O)/C(=C/c1ccc2c(c1)c1ccccc1n2C)NC(=O)c1ccccc1 | 626
12 | CCOc1ccc(CCNC(=O)COC(=O)/C=C/c2ccc(OCC#N)c(OC)c2)cc1OCC | 715
13 | CCOC(=O)c1c(C)[nH]c(N=Nc2ccccc2Cl)c1C | 657
14 | COc1ccc(CNC(=O)CN2C(=O)NC(C)(c3cccc4ccccc34)C2=O)cc1OC (configuration not stated) | 768
15 | Cc1cc(C(=O)NC2CCCc3c2cnn3-c2ccc(C)c(C)c2)nc(C)n1 (configuration not stated) | 782
16 | COc1ccc(NC(=O)COC(=O)/C=C/C(=O)OCC(=O)Nc2ccc(OC)c(Cl)c2)cc1Cl | 651
17 | O=C(NCc1ccc2c(c1)OCO2)c1cc(-c2ccccc2)c(N2CCOCC2)s1 | 728
18 | COc1ccc(N(C(=O)CCl)C(C(=O)NC2CCCCC2)c2cccnc2)cc1 (configuration not stated) | 159
19 | Cc1cc(C(=O)N[C@@H](c2ccccc2)[C@]2(C)C[C@H]2[C@@H](C)C(=O)Nc2ccc3ccccc3c2)no1 | 750
20 | COc1cc(CNC(=O)c2cccc(COc3ccc(Cl)cc3)c2)cc(OC)c1 | 709
21 | c1ccc2nc(N3CCN(Cc4ccc5c(c4)OCO5)CC3)cnc2c1 | 790

Row | SMILES | cell count [cells]
22 | CCCCOC(=O)c1ccc(NC(=O)/C=C/c2cccs2)cc1 | 624
23 | COc1cc2c(c(OC)c1OC)-c1ccc(OC)c(=O)cc1[C@@H](NC(C)=O)CC2 | 194
24 | Cc1ccc(-n2nc3c(c2NC(=O)CC(C)C)CS(=O)C3)cc1 (configuration not stated) | 285
25 | COc1ccc(NC(=O)c2sccc2C)cn1 | 654
26 | COC(=O)COc1cccc(NC(=O)c2ccc(Cl)cc2)c1 | 657
27 | O=C(Nc1ccc([N+](=O)[O-])cc1)Nc1ccon1 | 299
28 | COc1ccc(N(C(=O)c2ccccc2C)S(=O)(=O)c2cccs2)cc1 | 221
29 | CCCCN(CCCNC(=O)Cn1nc(CC)n2c(cc3sc(C)cc32)c1=O)Cc1ccccc1 | 770
30 | CC(C)c1cc(C(=O)N2CCCC(CCC(=O)NCc3ccccc3F)C2)n(C)n1 (configuration not stated) | 752
31 | COc1cc(C(=O)Nc2nc(-c3ccc(F)cc3)cs2)ccc1OCC(=O)N1CCOCC1 | 669
32 | CCOc1ccc(/C=N/Nc2ccc(C(F)(F)F)cc2[N+](=O)[O-])cc1O | 797
33 | COc1ccccc1NC(=O)C1CCN(C(=O)NCc2ccccc2)CC1 | 698
34 | COc1ccc(Br)cc1/C=C/C(=O)Nc1ccc2ccccc2c1 | 624
35 | CCOc1ccc(C(C)NC(=O)Cc2ccccc2)cc1OCC (configuration not stated) | 610
36 | CCCOC(=O)c1[nH]c2c(c1C)C(=O)CC(c1cccs1)C2 (configuration not stated) | 238
37 | C/C(=N\N=C(/N)c1nonc1N)c1ccc2c(c1)OCO2 | 771
38 | CCOc1ncccc1C(=O)N1CCN(c2cccc(C)c2C)CC1 | 142
39 | CCOc1cc2c(cc1OCC)C(c1ccccc1)N(c1ccccc1)C(=O)C2 (configuration not stated) | 593
40 | Cc1ccc(-n2c(N)c(C(=O)Nc3c(C)n(C)n(-c4ccccc4)c3=O)c3nc4ccccc4nc32)cc1C | 598
41 | Nc1nc(-c2ccccc2)c(N=Nc2ccc(Cl)cc2)s1 | 590
42 | Cc1ccc(-c2c(C)nn3c(N4CCOCC4)cc(C)nc23)cc1 | 815

Row | SMILES | cell count [cells]
43 | CC(NC(=O)[C@@H](C)NC(=O)[C@@H]1Cc2ccccc2CN1C(=O)OC(C)(C)C)c1ccccc1 (some centres not stated) | 711
44 | Cc1[nH]c2ccccc2c1/C=N/Nc1nc(Nc2ccc(F)cc2)nc(N2CCOCC2)n1 | 362
45 | CCOc1ccc2c(c1)C(C)=CC(C)(C)N2S(=O)(=O)c1ccc(C)cc1 | 135
46 | CCOc1ccc2nc(-c3ccccc3)nc(SCC(=O)Nc3ncc(C)s3)c2c1 | 649
47 | COc1ccccc1CNC(=O)c1ccc2nc3[nH]c4ccccc4c3nc2c1 | 706
48 | Cc1ccc2[nH]c(C)c(CC(=O)NCc3ccccc3)c2c1 | 862
49 | CC(C)(C)c1ccc(-c2csc(NNC3=NCCCCC3)n2)cc1 | 738
50 | O=C(N/N=C/c1ccc([N+](=O)[O-])o1)c1cc(-c2ccc(-c3ccccc3)cc2)nc2ccccc12 | 30
51 | Cc1ccc(CNC(=O)c2ccc(N3CCC4(CC3)CC(c3ccccc3)=NO4)c(N)c2)cc1 | 776
52 | Cc1oc2c(cc(NS(=O)(=O)c3cccs3)c3ccccc32)c1C(=O)OC(C)C | 649
53 | COC(=O)/C(=C\c1ccc2c(c1)c1ccccc1n2C)NC(=O)c1ccccc1 | 671
54 | C=C(C)[C@@H]1CC[C@]2(C(=O)O)CC[C@]3(C)C(CCC4[C@@]5(C)CC[C@H](O)C(C)(C)C5CC[C@]43C)C12 (some centres not stated) | 858
55 | COc1cc2ncnc(NCc3cccc(Cl)c3)c2cc1OC | 402
56 | Cc1ccc(NC(=S)NNC(=S)Nc2ccc(C)cc2C)cc1 | 125
57 | CSC1=NC(C(Cl)(Cl)Cl)N=C(c2ccc(C)cc2)N1 (configuration not stated) | 268
58 | O=[N+]([O-])c1ccc(/C=C/C2=NN(c3ccccc3)C(c3ccco3)C2)o1 (configuration not stated) | 685
59 | CCOC(=O)c1[nH]c(C)c(C(=O)Nc2cc(Cl)ccc2C)c1C | 270
60 | COCCOC(=O)C1=C(C)NC(C)=C(C(=O)OC(C)C)C1c1cccc([N+](=O)[O-])c1 (configuration not stated) | 266
61 | CCOc1ccccc1NC(=O)N1CCCC1C(=O)Nc1ccc(-n2cnnn2)c(C)c1 (configuration not stated) | 807
62 | COc1ccccc1NC(=S)N(Cc1ccco1)Cc1cc2cc(C)c(C)cc2[nH]c1=O | 272

From PubChem BioAssay AID1656 (Sanford-Burnham Center for Chemical Genomics, 2009)
